# The list shows a part of the results.
# Assays:
# Test in all cases: glycan array binding signal (z-score within array); higher = stronger binding
# Settings in all cases: glycan notation: IUPAC condensed, linker removed
# [1] = target: Gal(b1-4)GlcNAc(b1-2)Man(a1-6)[GlcNAc(b1-2)Man(a1-3)]Man(b1-4)GlcNAc(b1-4)GlcNAc
# Summary of the method: (§1)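 Arrays were curated from the Consortium for Functional Glycomics database, 3228 in total, and kept only where the protein sequence was available. Binding is expressed as a within-array Z-score. This score was averaged across arrays of the same protein sequence at different concentrations or buffers and across linkers, and negative values can be read as non-binding.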
# [2] = target: Gal(b1-4)GlcNAc(b1-2)Man(a1-6)[Man(a1-3)]Man(b1-4)GlcNAc(b1-4)GlcNAc
# Summary of the method: as §1
# [3] = target: Gal(b1-4)GlcNAc(b1-2)[Gal(b1-4)GlcNAc(b1-4)]Man(a1-3)[Gal(b1-4)GlcNAc(b1-2)Man(a1-6)]Man(b1-4)GlcNAc(b1-4)GlcNAc
# Summary of the method: as §1
# [4] = target: Gal(b1-4)GlcNAc(b1-2)[Gal(b1-4)GlcNAc(b1-4)]Man(a1-3)[Gal(b1-4)GlcNAc(b1-2)[Gal(b1-4)GlcNAc(b1-6)]Man(a1-6)]Man(b1-4)GlcNAc(b1-4)GlcNAc
# Summary of the method: as §1
# [5] = target: Gal(b1-4)GlcNAc(b1-2)[Gal(b1-4)GlcNAc(b1-4)]Man(a1-3)[GlcNAc(b1-4)][Gal(b1-4)GlcNAc(b1-2)Man(a1-6)]Man(b1-4)GlcNAc(b1-4)GlcNAc
# Summary of the method: as §1
# [6] = target: Gal(b1-4)GlcNAc(b1-2)[Gal(b1-4)GlcNAc(b1-4)]Man(a1-3)[GlcNAc(b1-4)][Gal(b1-4)GlcNAc(b1-2)[Gal(b1-4)GlcNAc(b1-6)]Man(a1-6)]Man(b1-4)GlcNAc(b1-4)GlcNAc
# Summary of the method: as §1
# [7] = target: Gal(b1-4)GlcNAc(b1-2)[Gal(b1-4)GlcNAc(b1-6)]Man(a1-6)[Gal(b1-4)GlcNAc(b1-2)Man(a1-3)]Man(b1-4)GlcNAc(b1-4)GlcNAc
# Summary of the method: as §1
# [8] = target: Gal(b1-4)GlcNAc(b1-2)[Gal(b1-4)GlcNAc(b1-6)]Man(a1-6)[Gal(b1-4)GlcNAc(b1-2)Man(a1-3)]Man(b1-4)GlcNAc(b1-4)[Fuc(a1-6)]GlcNAc
# Summary of the method: as §1
# [9] = target: Gal(b1-4)GlcNAc(b1-2)[Gal(b1-4)GlcNAc(b1-6)]Man(a1-6)[GlcNAc(b1-4)][Gal(b1-4)GlcNAc(b1-2)Man(a1-3)]Man(b1-4)GlcNAc(b1-4)GlcNAc
# Summary of the method: as §1
# [10] = target: Gal(b1-4)GlcNAc(b1-2)[Gal(b1-4)GlcNAc(b1-6)]Man(a1-6)[GlcNAc(b1-4)][Gal(b1-4)GlcNAc(b1-2)[Gal(b1-4)GlcNAc(b1-4)]Man(a1-3)]Man(b1-4)GlcNAc(b1-4)[Fuc(a1-6)]GlcNAc
# Summary of the method: as §1
# [11] = target: Gal(b1-4)GlcNAc(b1-3)Gal(b1-3)GalNAc
# Summary of the method: as §1
# [12] = target: Gal(b1-4)GlcNAc(b1-3)Gal(b1-3)GlcNAc
# Summary of the method: as §1
# [13] = target: Gal(b1-4)GlcNAc(b1-3)Gal(b1-4)Glc
# Summary of the method: as §1
# [14] = target: Gal(b1-4)GlcNAc(b1-3)Gal(b1-4)GlcNAc
# Summary of the method: as §1
# [15] = target: Gal(b1-4)GlcNAc(b1-3)Gal(b1-4)GlcNAc(b1-2)Man(a1-3)[Gal(b1-4)GlcNAc(b1-3)Gal(b1-4)GlcNAc(b1-2)Man(a1-6)]Man(b1-4)GlcNAc(b1-4)GlcNAc
# Summary of the method: as §1
# [16] = target: Gal(b1-4)GlcNAc(b1-3)Gal(b1-4)GlcNAc(b1-2)Man(a1-3)[Gal(b1-4)GlcNAc(b1-3)Gal(b1-4)GlcNAc(b1-2)Man(a1-6)]Man(b1-4)GlcNAc(b1-4)[Fuc(a1-6)]GlcNAc
# Summary of the method: as §1
# [17] = target: Gal(b1-4)GlcNAc(b1-3)Gal(b1-4)GlcNAc(b1-2)[Gal(b1-4)GlcNAc(b1-3)Gal(b1-4)GlcNAc(b1-6)]Man(a1-6)[Gal(b1-4)GlcNAc(b1-3)Gal(b1-4)GlcNAc(b1-2)Man(a1-3)]Man(b1-4)GlcNAc(b1-4)GlcNAc
# Summary of the method: as §1
# [18] = target: Gal(b1-4)GlcNAc(b1-3)Gal(b1-4)GlcNAc(b1-2)[Gal(b1-4)GlcNAc(b1-3)Gal(b1-4)GlcNAc(b1-6)]Man(a1-6)[Gal(b1-4)GlcNAc(b1-3)Gal(b1-4)GlcNAc(b1-2)Man(a1-3)]Man(b1-4)GlcNAc(b1-4)[Fuc(a1-6)]GlcNAc
# Summary of the method: as §1
binder,measurement,setting,value
"Sebin2 (Coprinopsis cinerea), A8PE78 (protein) MTTPFYAYCHNVQDDNTWRLGLVFANRSTADEWWRAISEATSSIPITKSITRVTPQYYTHDIRVWNMYNFFVDGNIKSISDKFRGRLFITLEYDRSGRGVSVFPPLHIVDHVSGNWYYIRSKTAPHLFWFYDETRNAIYASKEKRTRFKVSIRNPSPQTPKDAIMINSDDVVIHIKESLYVGVDSYLGHIIPTRAYRTFKFGELEGGAIAGIEVAENAEERCSSTFDGASLYFVGPDSSSPGEPWELV",glycan array binding signal (z-score),[1],-0.185
same,glycan array binding signal (z-score),[2],0.215
same,glycan array binding signal (z-score),[3],-0.132
same,glycan array binding signal (z-score),[4],-0.409
same,glycan array binding signal (z-score),[5],-0.1
same,glycan array binding signal (z-score),[6],-0.138
same,glycan array binding signal (z-score),[7],-0.369
same,glycan array binding signal (z-score),[8],-0.177
same,glycan array binding signal (z-score),[9],-0.007
same,glycan array binding signal (z-score),[10],-0.526
same,glycan array binding signal (z-score),[11],-0.178
same,glycan array binding signal (z-score),[12],-0.143
same,glycan array binding signal (z-score),[13],-0.052
same,glycan array binding signal (z-score),[14],-0.478
same,glycan array binding signal (z-score),[15],-0.122
same,glycan array binding signal (z-score),[16],0.032
same,glycan array binding signal (z-score),[17],0.304
same,glycan array binding signal (z-score),[18],-0.085

# From the supplement of paper PMC8728848
